Test results from PubChem BioAssay AID463173 (ICCB-Longwood Screening Facility, Harvard Medical School, 2010).
Hit rate of the full screen: of about 52,000 compounds, about 4,300 (8.3%) were called active. No stated cut-off is given here; in the data, active means survival mostly below about 52% (no sharp cut-off); inactive means mostly above about 56%. The list shows a part of the results.

These molecules were tested on DeltatarO mutant (assay: growth inhibition of S. aureus wild type versus tarO mutant, primary screen, teichoic acid synthesis inhibitors, RN4220, OD600 (AID 463173)). Settings: OD600, 18 h, stronger effect = lower value, screened at 18.75 µg/mL (by protocol).

Row | Structure (SMILES) | survival
1 | COc1cc(OC)c(NC2(c3ccccc3)C(=O)c3ccccc3C2=O)cc1Cl | inactive: 70%
2 | CCc1ccccc1NC(=O)Nc1ccc2c(c1)N(CC)C(=O)c1ccccc1S2 | active: 41%
3 | CN(C)C(=O)CN1CCC(N2CCCCC2)CC1 | inactive: 96%
4 | CCOc1ccccc1CNC(=O)c1cc2n(n1)CCCN(Cc1ccc(C)cc1)C2=O | inactive: 81%
5 | CCOc1ccc(NC(=O)CSc2nc(C)c(C(=O)Nc3ccccc3)c(-c3ccc(Cl)cc3)c2C#N)cc1 | inactive: 80%
6 | CCc1cccc(-n2c(C)nc3c(cnn3-c3ccc(C)c(C)c3)c2=O)c1 | active: -1%
7 | Cc1cc(C)c2nc(N(Cc3cccnc3)C(=O)c3ccc(S(=O)(=O)N(C)C)cc3)sc2c1 | inactive: 90%
8 | CC1=C(C(=O)Nc2ccc(C)cc2C)C(C(C)C)n2nc(SCc3ccccc3Cl)nc2N1 (stereo unspecified) | inactive: 61%
9 | CCOC(=O)n1c(SCC)nc2ccccc21 | inactive: 83%
10 | Cc1sc2ncn(CC(=O)N3CCN(c4ccc(F)cc4)CC3)c(=O)c2c1S(=O)(=O)N1CCCCC1 | inactive: 81%
11 | Cc1ccc(S(=O)(=O)c2cn(CC(=O)Nc3ccc4c(c3)OCO4)c3ccccc3c2=O)cc1 | inactive: 60%
12 | Cc1cccc2sc(N(CCCN(C)C)C(=O)c3ccc(Cl)s3)nc12 | inactive: 73%
13 | Cc1ccc(Nc2nc3c(S(=O)(=O)c4ccccc4)nnn3c3ccsc23)c(C)c1 | inactive: 66%
14 | Cc1cccc(NC(=O)Cn2nnc(C(=O)Nc3ccc(F)c(Cl)c3)c2N)c1 | inactive: 101%
15 | COc1cc(C2C(C(=O)OCC(C)C)=C(C)N=C3SCCC(=O)N32)ccc1OCc1ccccc1 (stereo unspecified) | active: 46%
16 | COc1cccc(NC(=O)CSc2nc(=O)n(Cc3ccco3)c3c2CCC3)c1 | inactive: 90%
17 | COc1ccc2[nH]c(=O)c(CN(CCCN3CCOCC3)C(=O)Nc3ccccc3)cc2c1 | inactive: 105%
18 | CCCCNc1ncnc2c1nnn2C | inactive: 78%
19 | CCN1CCN(c2oc(-c3ccc(COc4ccc(C)cc4)o3)nc2C#N)CC1 | active: 38%
20 | CCCCNC(=O)c1ccc2c(c1)NC(=O)C(CS(=O)(=O)Cc1cccc(C)c1)N2 (stereo unspecified) | inactive: 94%
21 | COc1ccc2oc(-c3cccc(NC(=O)c4ccc(C#N)cc4F)c3)nc2c1 | inactive: 79%
22 | COc1cccc(NC(=O)Cn2c(=O)n(-c3ccc(Cl)cc3)c(=O)c3oc4ccccc4c32)c1 | inactive: 56%
23 | O=C(NC1CCCCC1)N1CC=C(c2ccccc2)CC1 | inactive: 114%

Row | Structure (SMILES) | survival
24 | COc1cc(C(=O)Nc2ccc3[nH]c(=O)sc3c2)cc(OC)c1OC | inactive: 82%
25 | CC(C)C(=O)N1c2ncnn2C2(CCCCC2)[C@@H]2CCCC[C@@H]21 | inactive: 101%
26 | CC1=C(C(=O)Nc2cccnc2)C(c2cccc(F)c2)n2nc(SCc3ccccc3)nc2N1 (stereo unspecified) | inactive: 85%
27 | CC(C)Cn1c(=O)c2sccc2n2c(CCCC(=O)NCCc3ccccc3)nnc12 | inactive: 94%
28 | COc1cccc(C(=O)NCC(=O)OCc2cc(=O)n3c(C)csc3n2)c1 | inactive: 85%
29 | CN1CCN(CC(=O)N2CCCC2=O)CC1 | inactive: 108%
30 | COc1ccc(C2CC(=O)N(Cc3ccc(F)cc3)c3ccccc3S2)cc1 (stereo unspecified) | active: 28%
31 | Cc1ccc(S(=O)(=O)N2CCN(Cc3noc(CCC(=O)N4CCCCC4)n3)CC2)c(C)c1 | inactive: 89%
32 | C[n+]1ccc(/C=C/c2ccc(N3CCCC3)o2)cc1 | inactive: 99%
33 | Oc1ccccc1C1OC2CCCCC2C2=CCCCC21 (stereo unspecified) | active: 34%
34 | Cn1c(C(=O)NCc2ccccc2F)cc2oc3ccccc3c21 | inactive: 55%
35 | CCN1CCN(c2cc3c(cc2F)c(=O)c(S(=O)(=O)c2ccc(OC)cc2)cn3CC)CC1 | inactive: 84%
36 | Cc1c(C(=O)Nc2cccc(C(F)(F)F)c2)sc2nc3n(c(=O)c12)CCCC3 | inactive: 69%
37 | COc1cccc2sc(N(Cc3cccnc3)C(=O)Cc3ccccc3)nc12 | inactive: 80%
38 | O=C(c1ccco1)n1nc(-c2ccccc2)nc1NCc1ccc(F)cc1 | inactive: 65%
39 | Cc1nc2ccc(S(=O)(=O)CCC(=O)Nc3ccc(C)c(C)c3)cc2s1 | inactive: 107%
40 | CCN1C(=O)C2C(c3ccc(O)cc3)NC(CO)(C(=O)OC)C2C1=O (stereo unspecified) | inactive: 82%
41 | CCOC(=O)c1c(-c2ccccc2)csc1NC(=O)c1cc(-c2ccc(Br)cc2)on1 | inactive: 57%
42 | COCCCNC(=O)c1sc2nc3n(c(=O)c2c1C)CCC3 | inactive: 91%
43 | CCOc1ccc(CCNC(=O)CCc2c(C)nc3c(-c4ccccc4)c(C)nn3c2C)cc1OCC | inactive: 70%
44 | C1CN(C(N2CCOCC2)N2CCOCC2)CCO1 | inactive: 82%
45 | Cc1nc(Nc2ccc(Cl)cc2)cc(-c2ccccc2)n1 | active: -4%
46 | CCOc1ccc(NC(=O)CC2C(=O)N(c3ccccc3)C(=O)N2C2CCCCC2)cc1 (stereo unspecified) | inactive: 67%

Row | Structure (SMILES) | survival
47 | COc1ccccc1CNC(=O)NCc1noc2ccc(C)cc12 | inactive: 56%
48 | O=C(COC(=O)c1ccco1)NCC1CCCO1 (stereo unspecified) | inactive: 101%
49 | COc1cccc(C2CC(=O)NC(SC)=C2C#N)c1 (stereo unspecified) | inactive: 89%
50 | CC(C)C(=O)N(Cc1ccccc1)S(=O)(=O)c1ccc2c(c1)oc(=O)n2C | inactive: 44%
51 | Cc1ccc(-n2c(=O)c3c4c(sc3n(Cc3cccc(Cl)c3)c2=O)CCC4)cc1C | inactive: 150%
52 | Cc1nc2nncn2c(NCc2ccc(Cl)cc2)c1C | inactive: 77%
53 | Cc1ccc(CN(C(=O)COc2ccc(Cl)c(C)c2)C2CCS(=O)(=O)C2)o1 (stereo unspecified) | inactive: 84%
54 | Cc1csc2nc(COC(=O)c3ccccc3NC(=O)COc3ccccc3F)cc(=O)n12 | inactive: 94%
55 | Cc1ccc(Cl)cc1NC(=O)Cn1c(=O)n(CCCS(=O)(=O)C2CCCCC2)c(=O)c2ccccc21 | inactive: 61%
56 | C=CCC(CC=C)(CNC(=O)C(=O)Nc1cc(C)ccc1OC)c1ccc(OC)c(OC)c1 | inactive: 96%
57 | CCOc1ccc(C2=NC(c3ccc(OC)cc3)=Nc3ccc(Cl)cc3N2)cc1 | inactive: 71%
58 | Cc1nc(Cc2ccc(OC(C)C)cc2)[nH]c(=O)c1CC(=O)O | inactive: 110%
59 | COc1ccccc1CNC(=O)CN1C(=O)COc2ccc(S(=O)(=O)N3CCC(C)CC3)cc21 | inactive: 76%
60 | O=C(Cn1cc(S(=O)(=O)N2CCCC2)c(S(=O)(=O)N2CCCC2)c1)Nc1cccc(F)c1 | inactive: 98%
61 | CCc1ccc(NC(=O)C(C)n2nnc3sc(-c4ccccc4)cc3c2=O)cc1 (stereo unspecified) | inactive: 63%
62 | COc1ccc(NC(=O)/C(C#N)=C/c2cc(C)n(-c3ccc(F)cc3)c2C)cc1 | inactive: 78%
63 | CCOC(=O)c1cccc(NC(=O)C2CCCN(S(=O)(=O)c3ccc4c(c3)oc(=O)n4C)C2)c1 (stereo unspecified) | inactive: 80%
64 | COc1ccc(Cn2c(=O)sc3ccccc32)cc1 | inactive: 74%
65 | O=C(NC1CC2CCCC(C1)N2Cc1ccccc1)C1CC1 (stereo unspecified) | inactive: 69%
66 | Cc1nc(NCCNC(=O)c2cccs2)c2c3c(sc2n1)CCCC3 | inactive: 99%
67 | CCOc1ccc(N(CC)S(=O)(=O)c2cc(Br)cc3c2N(C(C)=O)C(C)C3)cc1 (stereo unspecified) | inactive: 60%
68 | Cc1cccc(N2CCN(C(=O)Cn3nc(C)n4cccc4c3=O)CC2C)c1 (stereo unspecified) | inactive: 90%
69 | CN(Cc1ccccc1)S(=O)(=O)c1nnc(NC(=O)c2cccc(Cl)c2)s1 | active: 1%

Row | Structure (SMILES) | survival
70 | CCOC(=O)c1cc2c(nc1N)CC(C)(C)OC2 | inactive: 99%
71 | CCCCN(C)CCCNC(=O)Cn1ncc2c3ccccc3n(Cc3ccccc3)c2c1=O | inactive: 149%
72 | Cc1cccc(NC(=O)CSc2nccn2Cc2ccc(F)cc2)c1C | inactive: 94%
73 | Cc1cc(C)cc(OCC(=O)Nc2c(C)ccc3nsnc23)c1 | inactive: 63%
74 | COc1ccc(S(=O)(=O)c2cnc3ccc(Cl)cc3c2N2CCCCC2C)cc1 (stereo unspecified) | inactive: 134%
75 | Cc1ccccc1NC(=O)CSc1nc2nccnc2c(=O)n1CCc1c[nH]c2ccccc12 | active: 40%
76 | CCN(CC)C(=O)CSc1nsc(SCC(=O)N(CC)CC)c1C#N | inactive: 76%
77 | CCc1ccc(-n2nc(C)c3c(C)cc(=O)n(Cc4nc(-c5ccccc5)oc4C)c32)cc1 | inactive: 99%
78 | Cc1ccc(NC(=O)CN2C(=O)CCc3cc(S(=O)(=O)N4CCOCC4)ccc32)cc1F | active: 47%
79 | COc1ccc(OC)c(CNC(=O)c2ccc(Sc3ccc(C)cc3)c(N)c2)c1 | inactive: 80%
80 | Cc1cccc(CNC(=O)CCn2c(=O)c3cccn3c3ccc(F)cc32)c1 | inactive: 92%
81 | CCOc1ccc(CNC(=O)C2Cc3ccccc3N2C(=O)CC)cc1OC (stereo unspecified) | inactive: 78%
82 | CCCc1nn2c(=O)cc(COC(=O)c3ccccc3NC(=O)COc3ccccc3F)nc2s1 | inactive: 84%
83 | Cc1nc2c(C(=O)NCCCN(CC(C)C)CC(C)C)cnn2c(C)c1Cc1c(F)cccc1Cl | inactive: 92%
84 | CCCOC(=O)c1c(NC(=O)c2nc3ncccn3n2)sc(C(N)=O)c1C | inactive: 85%
85 | COc1cccc(-c2cc(C(F)(F)F)n3ncc(C(=O)NN4CCN(C)CC4)c3n2)c1 | inactive: 106%
86 | CCOc1ccccc1CN1CCN(S(=O)(=O)c2ccccc2)CC1 | inactive: 133%
87 | Cc1ccccc1NC(=O)c1ccc2c(c1)c(C)c(C)n2Cc1ccccc1 | inactive: 94%
88 | COc1ccc(S(=O)(=O)N2CCCN(CC(=O)Nc3ccc(NC(C)=O)cc3)CC2)cc1 | inactive: 90%
89 | COCc1nc2ccccc2n1CCOc1cccc(C)c1 | active: 39%
90 | O=C(CN1N=C(c2ccc(Cl)cc2)CCC1=O)NCCc1ccc(Cl)cc1 | inactive: 94%
91 | O=C1CC(c2ccccc2)Sc2nc3ccccc3n21 (stereo unspecified) | inactive: 66%
